Data: article PMC9925317
Results are given in words; binding and its absence hold for the method and conditions named. For some assays here: Binding seen in cells or lysates may run through a third protein. Some binding calls cover weakened binding; strength is not graded here. For some assays here: Where a sequence is shown, tags or fusion partners need not be part of it.

Amino acid sequences for entries named in this document (tags omitted).
UniProt Q13263: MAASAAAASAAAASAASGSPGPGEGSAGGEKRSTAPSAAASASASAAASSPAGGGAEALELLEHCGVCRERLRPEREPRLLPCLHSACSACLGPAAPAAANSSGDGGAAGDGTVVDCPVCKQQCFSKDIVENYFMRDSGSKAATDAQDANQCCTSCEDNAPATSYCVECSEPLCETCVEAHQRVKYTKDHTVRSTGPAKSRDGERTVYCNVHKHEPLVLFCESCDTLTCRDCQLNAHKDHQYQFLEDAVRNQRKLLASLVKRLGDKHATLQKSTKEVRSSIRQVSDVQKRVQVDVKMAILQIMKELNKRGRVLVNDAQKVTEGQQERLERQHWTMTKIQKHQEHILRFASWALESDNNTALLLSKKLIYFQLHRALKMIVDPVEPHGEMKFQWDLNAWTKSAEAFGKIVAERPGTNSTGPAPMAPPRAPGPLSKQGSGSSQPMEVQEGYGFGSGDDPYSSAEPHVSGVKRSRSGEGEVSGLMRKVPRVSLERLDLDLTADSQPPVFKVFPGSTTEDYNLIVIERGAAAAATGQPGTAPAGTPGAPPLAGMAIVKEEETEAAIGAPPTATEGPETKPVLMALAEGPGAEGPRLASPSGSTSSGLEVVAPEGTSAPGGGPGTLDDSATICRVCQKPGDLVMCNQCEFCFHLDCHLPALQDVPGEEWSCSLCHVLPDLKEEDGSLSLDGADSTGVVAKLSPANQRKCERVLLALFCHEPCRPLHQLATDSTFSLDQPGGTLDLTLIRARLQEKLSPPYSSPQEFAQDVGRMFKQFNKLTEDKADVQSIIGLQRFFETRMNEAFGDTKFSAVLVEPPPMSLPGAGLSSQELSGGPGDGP
UniProt Q14839: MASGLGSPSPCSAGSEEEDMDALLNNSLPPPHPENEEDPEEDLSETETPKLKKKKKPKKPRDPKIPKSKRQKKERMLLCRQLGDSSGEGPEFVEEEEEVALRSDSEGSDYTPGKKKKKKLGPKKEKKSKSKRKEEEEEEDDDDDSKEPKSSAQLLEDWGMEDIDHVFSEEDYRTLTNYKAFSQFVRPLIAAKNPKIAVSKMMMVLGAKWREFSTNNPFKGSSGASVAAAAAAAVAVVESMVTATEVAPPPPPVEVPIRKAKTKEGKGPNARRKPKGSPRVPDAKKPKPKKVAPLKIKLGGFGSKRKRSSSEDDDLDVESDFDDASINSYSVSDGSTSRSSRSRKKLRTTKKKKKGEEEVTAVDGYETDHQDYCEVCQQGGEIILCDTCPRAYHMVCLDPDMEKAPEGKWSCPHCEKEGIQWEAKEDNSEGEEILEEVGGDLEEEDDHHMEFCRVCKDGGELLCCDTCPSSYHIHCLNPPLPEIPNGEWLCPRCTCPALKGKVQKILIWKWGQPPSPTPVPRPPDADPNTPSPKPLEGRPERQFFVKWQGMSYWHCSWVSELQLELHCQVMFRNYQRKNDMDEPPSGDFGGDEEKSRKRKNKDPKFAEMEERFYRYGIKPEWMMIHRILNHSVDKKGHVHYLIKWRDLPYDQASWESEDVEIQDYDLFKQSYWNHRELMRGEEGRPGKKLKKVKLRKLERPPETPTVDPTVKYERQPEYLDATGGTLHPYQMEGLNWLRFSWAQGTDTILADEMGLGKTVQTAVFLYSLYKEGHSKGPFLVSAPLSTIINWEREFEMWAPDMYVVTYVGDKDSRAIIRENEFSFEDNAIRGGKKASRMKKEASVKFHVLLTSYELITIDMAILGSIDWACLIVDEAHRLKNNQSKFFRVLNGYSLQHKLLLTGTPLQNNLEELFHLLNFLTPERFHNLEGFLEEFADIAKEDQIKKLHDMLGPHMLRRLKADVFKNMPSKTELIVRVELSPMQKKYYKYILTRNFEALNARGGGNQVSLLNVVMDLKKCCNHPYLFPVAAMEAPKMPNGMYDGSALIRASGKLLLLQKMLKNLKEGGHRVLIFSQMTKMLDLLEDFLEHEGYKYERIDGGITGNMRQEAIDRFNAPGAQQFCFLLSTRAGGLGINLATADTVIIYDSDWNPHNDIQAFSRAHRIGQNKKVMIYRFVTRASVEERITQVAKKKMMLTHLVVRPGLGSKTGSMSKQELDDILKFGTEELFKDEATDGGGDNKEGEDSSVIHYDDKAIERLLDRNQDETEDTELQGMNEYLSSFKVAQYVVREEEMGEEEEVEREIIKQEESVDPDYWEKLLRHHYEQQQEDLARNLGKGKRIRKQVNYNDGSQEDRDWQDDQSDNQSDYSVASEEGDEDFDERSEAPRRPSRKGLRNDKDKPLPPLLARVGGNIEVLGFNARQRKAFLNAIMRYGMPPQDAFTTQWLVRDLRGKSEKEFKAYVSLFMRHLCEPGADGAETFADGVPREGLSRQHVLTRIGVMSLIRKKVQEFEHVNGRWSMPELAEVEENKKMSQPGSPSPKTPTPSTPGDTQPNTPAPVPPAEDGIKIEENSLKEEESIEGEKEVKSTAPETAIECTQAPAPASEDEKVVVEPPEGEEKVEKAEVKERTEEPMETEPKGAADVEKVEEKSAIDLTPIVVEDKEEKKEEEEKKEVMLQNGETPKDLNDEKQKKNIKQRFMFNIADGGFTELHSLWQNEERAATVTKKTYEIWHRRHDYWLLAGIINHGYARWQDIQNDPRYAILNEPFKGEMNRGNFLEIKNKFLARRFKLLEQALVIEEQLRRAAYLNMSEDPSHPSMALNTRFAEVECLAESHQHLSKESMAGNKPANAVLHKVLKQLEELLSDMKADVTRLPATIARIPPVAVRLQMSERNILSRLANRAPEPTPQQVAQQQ
UniProt P68400: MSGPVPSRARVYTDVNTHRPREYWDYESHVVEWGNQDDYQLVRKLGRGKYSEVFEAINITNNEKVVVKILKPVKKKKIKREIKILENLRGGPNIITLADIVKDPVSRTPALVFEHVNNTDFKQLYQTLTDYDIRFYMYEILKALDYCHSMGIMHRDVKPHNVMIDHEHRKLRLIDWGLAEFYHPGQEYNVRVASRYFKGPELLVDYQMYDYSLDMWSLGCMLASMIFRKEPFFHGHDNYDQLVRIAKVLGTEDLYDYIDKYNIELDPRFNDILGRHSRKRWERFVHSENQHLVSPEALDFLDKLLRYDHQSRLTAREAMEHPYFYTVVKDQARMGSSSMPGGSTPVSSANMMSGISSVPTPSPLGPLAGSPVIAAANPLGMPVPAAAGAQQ

Legend:
[1] = target: T1, GST-tagged MORC2 fusion protein (human) (UniProt Q9Y6X9); test: pull-down; GST-tagged MORC2 on glutathione beads with recombinant Flag-TRIM28; binding buffer 20 mM Tris pH7.5, 500 mM NaCl, 0.5% NP40, 10% glycerol, 4 C overnight; immunoblotting; both purified
T1 sequence: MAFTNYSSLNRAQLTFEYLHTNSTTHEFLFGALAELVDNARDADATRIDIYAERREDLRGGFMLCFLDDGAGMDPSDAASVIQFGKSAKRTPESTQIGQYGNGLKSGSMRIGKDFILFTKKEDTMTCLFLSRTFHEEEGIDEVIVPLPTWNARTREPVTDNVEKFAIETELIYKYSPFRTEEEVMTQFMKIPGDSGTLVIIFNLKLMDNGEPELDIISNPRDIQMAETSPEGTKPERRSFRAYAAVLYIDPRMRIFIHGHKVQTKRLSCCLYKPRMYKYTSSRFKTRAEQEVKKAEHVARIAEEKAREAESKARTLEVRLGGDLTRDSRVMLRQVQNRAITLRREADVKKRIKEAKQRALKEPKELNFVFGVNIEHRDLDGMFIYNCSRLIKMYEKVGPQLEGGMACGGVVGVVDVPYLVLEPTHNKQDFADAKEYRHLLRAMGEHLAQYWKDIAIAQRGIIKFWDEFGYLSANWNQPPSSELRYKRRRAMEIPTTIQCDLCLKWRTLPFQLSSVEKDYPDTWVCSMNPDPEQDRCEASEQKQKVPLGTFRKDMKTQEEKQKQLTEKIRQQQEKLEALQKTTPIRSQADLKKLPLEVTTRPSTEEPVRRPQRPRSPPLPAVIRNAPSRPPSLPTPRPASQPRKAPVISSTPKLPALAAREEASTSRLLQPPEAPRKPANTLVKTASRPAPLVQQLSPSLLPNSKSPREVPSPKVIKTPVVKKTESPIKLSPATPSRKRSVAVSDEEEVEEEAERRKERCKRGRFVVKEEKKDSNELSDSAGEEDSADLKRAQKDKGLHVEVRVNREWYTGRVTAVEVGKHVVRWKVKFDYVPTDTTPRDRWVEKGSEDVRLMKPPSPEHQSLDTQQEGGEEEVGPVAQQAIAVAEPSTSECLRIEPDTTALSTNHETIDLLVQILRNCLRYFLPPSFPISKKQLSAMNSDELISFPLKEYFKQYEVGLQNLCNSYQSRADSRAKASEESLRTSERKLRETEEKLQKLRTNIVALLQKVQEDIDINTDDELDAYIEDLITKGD

[2] = target: T2, SUMOylated MORC2 (WT Flag-MORC2 co-expressed with GFP-SUMOs in HEK293T cells) (human) (UniProt Q9Y6X9); test: co-IP; HEK293T cells transfected with WT or K767R MORC2 alone or with GFP-SUMO plasmids for 48 h; anti-Flag beads; endogenous partners immunoblotted
T2 sequence (chain, SUMO (GFP-SUMO1, GFP-SUMO2, GFP-SUMO3 co-expressed) conjugated at lysine 767): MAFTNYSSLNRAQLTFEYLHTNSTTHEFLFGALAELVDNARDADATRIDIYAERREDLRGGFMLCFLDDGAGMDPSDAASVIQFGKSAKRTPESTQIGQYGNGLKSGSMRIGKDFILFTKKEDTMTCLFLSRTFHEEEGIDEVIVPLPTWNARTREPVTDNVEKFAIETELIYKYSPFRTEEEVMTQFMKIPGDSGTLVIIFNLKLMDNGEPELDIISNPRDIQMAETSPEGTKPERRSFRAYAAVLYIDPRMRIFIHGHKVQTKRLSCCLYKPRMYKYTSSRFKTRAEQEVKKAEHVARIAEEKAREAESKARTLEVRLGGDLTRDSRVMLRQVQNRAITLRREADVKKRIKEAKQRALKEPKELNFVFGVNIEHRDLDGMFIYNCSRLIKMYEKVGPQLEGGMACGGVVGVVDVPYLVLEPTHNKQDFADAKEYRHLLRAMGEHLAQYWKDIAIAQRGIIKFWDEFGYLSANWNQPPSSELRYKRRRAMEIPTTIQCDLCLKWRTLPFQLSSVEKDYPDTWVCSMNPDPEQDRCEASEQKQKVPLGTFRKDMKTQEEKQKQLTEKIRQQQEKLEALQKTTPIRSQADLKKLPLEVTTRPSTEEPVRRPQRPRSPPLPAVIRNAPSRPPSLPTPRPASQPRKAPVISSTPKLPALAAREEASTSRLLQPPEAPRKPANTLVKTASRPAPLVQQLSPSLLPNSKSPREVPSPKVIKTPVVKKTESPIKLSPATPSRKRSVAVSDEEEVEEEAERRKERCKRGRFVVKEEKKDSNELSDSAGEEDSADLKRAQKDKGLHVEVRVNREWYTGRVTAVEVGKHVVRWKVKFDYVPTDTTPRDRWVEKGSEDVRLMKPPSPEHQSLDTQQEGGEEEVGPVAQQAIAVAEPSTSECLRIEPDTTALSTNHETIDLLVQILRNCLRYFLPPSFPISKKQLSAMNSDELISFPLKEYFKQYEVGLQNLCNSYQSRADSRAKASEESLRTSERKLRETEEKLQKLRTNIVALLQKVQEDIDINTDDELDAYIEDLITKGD

[3] = target: T3, endogenous MORC2 (human (endogenous in HEK293T, MCF-7, T47D)) (UniProt Q9Y6X9); test: co-IP; endogenous proteins, MCF-7 and T47D cells treated with or without 1 uM ML-792 for 24 h; anti-MORC2 antibody; immunoblotting
T3 sequence: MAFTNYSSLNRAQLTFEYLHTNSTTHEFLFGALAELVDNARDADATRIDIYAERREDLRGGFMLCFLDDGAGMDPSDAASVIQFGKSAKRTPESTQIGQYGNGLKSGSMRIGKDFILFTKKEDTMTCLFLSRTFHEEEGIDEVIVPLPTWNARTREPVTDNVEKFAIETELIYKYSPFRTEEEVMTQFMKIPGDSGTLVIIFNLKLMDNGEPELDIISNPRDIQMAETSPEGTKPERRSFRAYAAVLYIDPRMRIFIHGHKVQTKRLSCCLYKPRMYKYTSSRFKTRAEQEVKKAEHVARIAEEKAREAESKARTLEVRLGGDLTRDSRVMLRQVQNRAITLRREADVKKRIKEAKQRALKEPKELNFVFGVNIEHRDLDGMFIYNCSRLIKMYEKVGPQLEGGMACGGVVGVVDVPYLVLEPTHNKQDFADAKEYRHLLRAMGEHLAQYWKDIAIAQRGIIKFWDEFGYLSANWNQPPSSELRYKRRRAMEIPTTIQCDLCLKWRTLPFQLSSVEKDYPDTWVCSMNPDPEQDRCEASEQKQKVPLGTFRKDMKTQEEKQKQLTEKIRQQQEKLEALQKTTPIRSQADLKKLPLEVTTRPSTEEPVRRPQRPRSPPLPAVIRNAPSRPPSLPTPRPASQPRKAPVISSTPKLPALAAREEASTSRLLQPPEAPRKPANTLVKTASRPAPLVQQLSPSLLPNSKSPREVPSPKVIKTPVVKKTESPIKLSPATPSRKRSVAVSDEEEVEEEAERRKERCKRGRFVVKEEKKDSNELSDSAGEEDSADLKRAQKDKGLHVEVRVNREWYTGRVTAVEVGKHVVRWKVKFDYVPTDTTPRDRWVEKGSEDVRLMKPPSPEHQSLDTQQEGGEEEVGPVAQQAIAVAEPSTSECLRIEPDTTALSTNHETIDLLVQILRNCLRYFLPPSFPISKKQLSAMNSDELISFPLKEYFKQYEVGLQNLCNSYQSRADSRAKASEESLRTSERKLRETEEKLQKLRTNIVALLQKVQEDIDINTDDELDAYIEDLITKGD

[4] = target: T4, Flag-MORC2, stably expressed in MCF-7 cells (human) (UniProt Q9Y6X9); test: co-IP; MCF-7 cells stably expressing Flag-MORC2; with or without 1 uM ADR for 2 h and release for the indicated times, with or without 1 uM ML-792; anti-Flag beads; endogenous partners immunoblotted
T4 sequence: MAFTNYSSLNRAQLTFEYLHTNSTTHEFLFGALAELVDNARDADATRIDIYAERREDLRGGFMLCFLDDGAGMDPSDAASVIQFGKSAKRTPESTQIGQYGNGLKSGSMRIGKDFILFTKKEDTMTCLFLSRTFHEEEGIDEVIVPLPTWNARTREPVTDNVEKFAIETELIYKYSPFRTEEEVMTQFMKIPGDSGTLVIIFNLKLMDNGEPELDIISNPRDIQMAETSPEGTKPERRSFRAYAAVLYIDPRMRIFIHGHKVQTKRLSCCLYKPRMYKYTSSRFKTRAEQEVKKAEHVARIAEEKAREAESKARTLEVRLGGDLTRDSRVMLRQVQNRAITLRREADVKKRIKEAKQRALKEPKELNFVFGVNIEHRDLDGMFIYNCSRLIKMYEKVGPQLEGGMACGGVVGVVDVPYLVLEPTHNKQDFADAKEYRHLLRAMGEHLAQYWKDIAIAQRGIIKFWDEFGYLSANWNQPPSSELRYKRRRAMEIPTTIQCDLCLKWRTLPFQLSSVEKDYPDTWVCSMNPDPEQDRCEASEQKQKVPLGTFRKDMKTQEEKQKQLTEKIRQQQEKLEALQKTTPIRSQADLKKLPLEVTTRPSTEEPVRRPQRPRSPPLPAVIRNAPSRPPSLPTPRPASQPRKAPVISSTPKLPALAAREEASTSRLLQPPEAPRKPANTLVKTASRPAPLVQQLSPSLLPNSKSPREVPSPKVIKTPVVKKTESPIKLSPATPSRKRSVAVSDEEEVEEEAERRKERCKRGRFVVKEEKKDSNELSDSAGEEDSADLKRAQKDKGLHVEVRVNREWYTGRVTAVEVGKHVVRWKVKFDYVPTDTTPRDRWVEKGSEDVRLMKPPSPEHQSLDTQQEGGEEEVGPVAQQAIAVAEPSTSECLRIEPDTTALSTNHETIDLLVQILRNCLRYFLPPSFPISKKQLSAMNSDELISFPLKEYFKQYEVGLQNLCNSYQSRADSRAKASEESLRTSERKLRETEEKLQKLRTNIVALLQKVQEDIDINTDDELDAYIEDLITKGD

[5] = target: T3, endogenous MORC2 (human (endogenous in HEK293T, MCF-7, T47D)); test: co-IP; endogenous proteins, MCF-7 lysates; control IgG, anti-MORC2 or anti-TRIM28 antibody; immunoblotting

Recombinant Flag-TRIM28 protein (from UniProt Q13263 1-835) (enzyme)
binding [1]: binds

endogenous CHD4 (chromodomain helicase DNA binding protein 4) (from UniProt Q14839 1-1912) (enzyme)
binding [2]: binds
binding [3]: binds

endogenous CSK21 (casein kinase II subunit alpha) (from UniProt P68400 1-391) (enzyme)
binding [2]: binds
binding [4]: binds
binding [3]: binds

endogenous TRIM28 (from UniProt Q13263 1-835) (enzyme)
binding [5]: binds
binding [4]: binds
